PubChem BioAssay AID493208 (National Center for Advancing Translational Sciences (NCATS), 2011)
About 340 (0.77%) of roughly 44,000 compounds were called active. Not shown: some 5% with an inconclusive outcome. Calls come from the whole dose curve; as a rule, active = well fitted inhibition curve with a large enough effect; inconclusive = small, poorly fitted or top-dose-only effect; inactive = flat fitted curve, though single readings scatter. This is one part of the list.

Assay: Acumen qHTS Assay for Inhibitors of the mTORC1 Signaling Pathway in MEF (Tsc2-/-, p53-/-) Cells: Sytravon;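 note: plate controls were DMSO for no effect and rapamycin for full effect; nearly all actives have a fitted effect of over 50% in size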
Conditions: phospho-rpS6 immunofluorescence/PI, 24 h; series mostly up to 38.3 µM; activity change, negative = inhibition: at the top concentration
Method in brief: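 Compounds act on Tsc2-/-, p53-/- fibroblasts carrying an empty vector for 24 h before fixation and dual staining for phospho-S6 and DNA (propidium iodide). Values are percentages of cells above a rapamycin-defined pS6/PI threshold.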

Activity change, negative = inhibition, inactive:
O=C(Nc1nc2n(n1)C(c1ccc(F)cc1)C=C(c1ccccc1)N2)c1ccco1 (stereo not drawn) 1.58%
O=c1c(-c2cc(-c3ccccc3)nc3c2COc2ccc(Cl)cc2-3)coc2ccc(F)cc12 5.49%
Cc1c(Cl)cccc1NC(=O)c1ccc2c(c1)CCN2S(=O)(=O)c1ccccc1 -5.55%
Cc1c(C(=O)Nc2ccc(C(=O)O)cc2)nnn1-c1ccccc1 -21.2%
Cc1ccc(CN2CCCN(CC(=O)Nc3ccc(C)cc3C)S2(=O)=O)cc1 -4%
CN(C)CCNc1ncnc2c1cnn2-c1cccc(Cl)c1 -3.56%
CN(C)c1ccc(C(CNC(=O)c2ccccc2C(F)(F)F)N2CCOCC2)cc1 (stereo not drawn) 2.68%
COc1ccc(CNC(=O)C2CCCN(S(=O)(=O)c3cccc4nsnc34)C2)cc1 (stereo not drawn) -12%
COC(=O)c1c(NC(=O)c2nc(SCc3ccc(F)cc3)ncc2Cl)sc2c1CCCC2 -1.06%
CCOc1ccccc1-c1noc(CSc2nnc(-c3ccccc3)n2-c2ccc(F)cc2)n1 -0.927%
Cc1nn2c(=O)cc(COC(=O)Cc3ccccc3)nc2s1 -5.53%
Nc1c(C(=O)Nc2ccc(OC(F)(F)F)cc2)sc2nc(-c3ccncc3)ccc12 7.2%
CCC1CN(C(=O)N2CCC(C(=O)Nc3ccccc3F)CC2)c2ccccc2O1 (stereo not drawn) -2.11%
Cc1ccc(CCNC(=O)c2ccc3c(Cl)c4c(nc3c2)CCCC4)cc1 -5.56%
CCCC(=O)Nc1ccccc1OCc1cc(=O)n2cc(C)ccc2n1 1.3%
Cc1ccc(C)c(N2CCN(c3c(CN4CCCC4)c(=O)oc4ccccc34)CC2)c1 -1.35%
COc1ccccc1CNC(=O)c1ccc2nc(N3CCCCC3)sc2c1 1.5%
COc1ccc(NC(=O)CN2C(=O)COc3ccc(S(=O)(=O)N4CCCCCC4)cc32)cc1 -4.4%
O=C(Nc1cccc(Cl)c1Cl)c1cc(S(=O)(=O)NCc2ccc3c(c2)OCO3)ccc1F 14.8%
Cc1ccc(-n2c(=O)cc(N3CCN(c4ccccc4Cl)CC3)[nH]c2=O)cc1 0.925%
COc1cccc(Cn2c(Oc3cc(C)cc(C)c3)nc3c2c(=O)n(C)c(=O)n3C)c1 -15.6%
COc1ccc(CC(=O)N2CCc3cc(OC)c(OC)cc3C2COc2cc(C)cc(C)c2)cc1OC (stereo not drawn) -17%
Cc1nn(S(=O)(=O)c2ccc(Br)cc2)c(C)c1S(=O)(=O)N1CCCCCC1 0.789%
Cc1cc(C)cc(NC(=O)CCS(=O)(=O)c2cccc3nsnc23)c1 -19.6%
CC(=O)c1ccc(NS(=O)(=O)c2cccc(S(=O)(=O)c3ccc(Cl)cc3)c2)cc1 10.7%
CCOc1ccc(CCNC(=O)CN2CCN(Cc3ccc(Cl)cc3)C2=O)cc1OCC -12.5%
CCc1ccc(N(CC)C(=O)c2cc3c(=O)oc4ccc(C)cc4c3s2)cc1 1.67%
COc1cccc(NC(=O)C(=O)NCC(c2ccc3c(c2)OCO3)N2CCN(C)CC2)c1 (stereo not drawn) -16.8%
Cc1cccc(C)c1Nc1nn2c(=O)c3cc4c(cc3nc2s1)OCO4 -26.4%
COc1ccc(NC(=O)CCCSc2nc(-c3ccco3)cc(C(F)(F)F)n2)cc1OC -0.382%
CCCCN(CC)CCCNC(=O)c1cc2c(=O)[nH]c3ccccc3c2n1C -17.2%
COc1cccc(C(=O)Nc2cccc(OCc3cc(=O)n4c5c(sc4n3)CCCC5)c2)c1 -7.69%
CC(=O)Nc1ccc(NS(=O)(=O)c2c(C(=O)N3CCC(C)CC3)c(C)n(C)c2C)cc1 0%
CCc1ccc(-c2cn3c(n2)sc2cc(C(=O)NC4CCCCC4)ccc23)cc1 7.06%
COc1cccc(-c2nc(S(=O)(=O)c3ccc(Cl)cc3)c(NCc3ccccc3)o2)c1 -17.4%
COc1ccc2oc(=O)c(C(=O)NCCc3c(C)[nH]c4ccc(F)cc34)cc2c1 -2.97%
COCCNc1oc(-c2ccccc2)nc1S(=O)(=O)c1ccc(Br)cc1 9.91%
COc1ccc2sc(N(Cc3cccnc3)C(=O)c3ccc4c(c3)OCCO4)nc2c1 -19.8%
O=C(Nc1ccc(F)c(Cl)c1)N1CC=C(c2c[nH]c3ccccc23)CC1 -23.1%
CC(C)CCNC(=O)c1cc2cc(S(=O)(=O)N3CCCCC3)ccc2n1C 1.44%
CCC(=O)N1c2ccccc2CC1C(=O)NCCc1ccccc1 (stereo not drawn) 7.68%
Cc1ccc(N2CCN(C(=O)c3cnc(N4CCCCC4)c4ccccc34)CC2)c(C)c1 -17.3%
CSc1ncc(Cl)c(C(=O)Nc2c(C(=O)Nc3cccc(Cl)c3)oc3ccccc23)n1 4.22%
CCC(=O)Nc1ccccc1-c1nc2ccccc2n(CC(=O)c2ccc(C)cc2)c1=O -18%
COc1cccc(Cn2nnc3c(=O)[nH]c(C4CCN(C(=O)c5ccccc5Cl)CC4)nc32)c1 3.33%
CC1=C(C(N)=O)C(c2ccccc2Br)n2ncnc2N1 (stereo not drawn) 0.983%
O=C(NCc1ccccc1Br)c1cnc2sc(N3CCCCCC3)nn2c1=O 3.37%
COc1cc(OC)c(NC(=O)CCCn2nc(C)c3c(C)n(-c4ccccc4)nc3c2=O)cc1Cl -3.82%
